Results on 17 variants are retold here after the supplement of paper PMC7125110.

First the molecules themselves.
B1: glmS ribozyme (parent)
chain: AUAAAAGCGCCAGAACUACAGAAAUGUAGUUGACGAGGAGGAGGUUUAUCGAAUUUUCGGCGGAUGCCUCCAAA

± gives the standard error. Variants at the floor of the assay are shown more often than the library holds them. Bounds are passed on as bounds.

What all share (details): with glucosamine-6-phosphate
The variants in data set [1] derive from B1. The experiment in a line: self-cleavage kobs at 40 uM GlcN6P; higher = faster cleavage; RNA array. Summed up:
(§1)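 Sequenced MiSeq chips were the platform: E. coli RNA polymerase transcribed barcoded ribozyme variants on them in situ, and a hybridised Cy3 probe tracked these at 37 °C. After glucosamine-6-phosphate (40 μM to 10 mM) in HEPES/KCl/Mg(OAc)2 buffer was flowed in, tiles were imaged over ~14 h. Signals normalised to baseline and to non-cleaving reference variants were reduced to per-tile medians and fit to one- or two-exponential decays to obtain kobs. kcat and KM were derived through weighted Michaelis–Menten fits across concentrations.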

Variants of B1 are the subject of data set [2]. The experiment in a line: self-cleavage kobs at 160 uM GlcN6P; higher = faster cleavage; RNA array. Summed up:
as §1

The variants in data set [3] derive from B1. In words: self-cleavage kobs at 10000 uM GlcN6P; higher = faster cleavage; RNA array. Summed up:
as §1

In data set [4] the parent is B1. In words: self-cleavage kobs at 640 uM GlcN6P; higher = faster cleavage; RNA array. Put shortly: as §1
Variants of B1 are the subject of data set [5]. The experiment in a line: self-cleavage kobs at 2500 uM GlcN6P; higher = faster cleavage; RNA array. Summed up: as §1

Consider AUAAAAGCGCCAGAACUACAGAAAUGUAGUUAACGAGGGGGAGGUUUAUCGUCUUUUCGGCGGAUGCCUCCAAA [G32A A39G A52U A53C], for which, in the data set with glucosamine-6-phosphate [1], the “self-cleavage kobs at 40 uM GlcN6P” value is under 1e-05 s⁻¹.
Still for that read-out and setting: then AUAAAAGCGCCAGAACUACAGAAAUGUAGUUAACGAGGAGGAGGUUUCUCGAAUUUGCGGCGGAUGUCUCCAAA [G32A A48C U57G C67U], with under 1e-05 s⁻¹; and AUAAAAGCGCCAGAACUACAGAAAUGUAGUUAACGAGGAGGAGGUUUAUCGAAGUUUCAGCGGAUGCCUCCAAA [G32A U54G G59A], with under 1e-05 s⁻¹.
Consider AUAAAAGCGCCAGAACUACAGAAAUGUAGUGGACGAGGAGGAUGUUUAUCGAAUUUUCGGCGGAUGCCUCCAAA [U31G G43U], for which, in the data set with glucosamine-6-phosphate [1], the “self-cleavage kobs at 40 uM GlcN6P” value is under 1e-05 s⁻¹. Moreover, the “self-cleavage kobs at 160 uM GlcN6P” value with glucosamine-6-phosphate [2] was under 1e-05 s⁻¹.
On to AUAAAAGCGCCAGAACUACAGAAAUGUAGUGGACGAGGAGGAGGUUUAGGGAAUUUUCGGCGGAUGCCUCCAAA [U31G U49G C50G], for which the “self-cleavage kobs at 40 uM GlcN6P” value with glucosamine-6-phosphate [1] was under 1e-05 s⁻¹.
For the variant AUAAAAGCGCCAGAACUACAGAAAUGUAGUGGACGAGGAGGAGGUUUAUCCACUUUUCGGCGGAUGCCUCCAAA [U31G G51C A53C], the “self-cleavage kobs at 40 uM GlcN6P” value with glucosamine-6-phosphate [1] is under 1e-05 s⁻¹. Besides, the “self-cleavage kobs at 10000 uM GlcN6P” value in the data set with glucosamine-6-phosphate [3] was under 1e-05 s⁻¹.
On to AUAAAAGCGCCAGAACUACAGAAAUGUAGUUAACGGGGAGGAGGUUUAUCGAAUUUUCGGCGGAUGCCUCCAAA [G32A A36G], for which the “self-cleavage kobs at 40 uM GlcN6P” value in the data set with glucosamine-6-phosphate [1] was under 1e-05 s⁻¹. Besides, the “self-cleavage kobs at 640 uM GlcN6P” value with glucosamine-6-phosphate [4] is under 1e-05 s⁻¹. The “self-cleavage kobs at 160 uM GlcN6P” value in the data set with glucosamine-6-phosphate [2] was under 1e-05 s⁻¹. For the same variant, the “self-cleavage kobs at 2500 uM GlcN6P” value in the data set with glucosamine-6-phosphate [5] was under 1e-05 s⁻¹.
For AUAAAAGCGCCAGAACUACAGAAAUGUAGUUAACUAGGAGGAGGUUUAUCGAAUUUUCGGCGGAUGCCUCGAAA [G32A G35U C71G], the “self-cleavage kobs at 40 uM GlcN6P” value with glucosamine-6-phosphate [1] was under 1e-05 s⁻¹. Besides, in the data set with glucosamine-6-phosphate [4], the “self-cleavage kobs at 640 uM GlcN6P” value was under 1e-05 s⁻¹. Moreover, the “self-cleavage kobs at 2500 uM GlcN6P” value with glucosamine-6-phosphate [5] is under 1e-05 s⁻¹. Also, the “self-cleavage kobs at 10000 uM GlcN6P” value with glucosamine-6-phosphate [3] was under 1e-05 s⁻¹.
Consider AUAAAAGCGCCAGAACUACAGAAAUGUAGUUCACGUGGAGGGGGUUUAUCGAAUUUUCGGCGGAUGCCUCCAAA [G32C A36U A42G], for which, in the data set with glucosamine-6-phosphate [1], the “self-cleavage kobs at 40 uM GlcN6P” value was under 1e-05 s⁻¹.
As for AUAAAAGCGCCAGAACUACAGAAAUGUAGUUAUCGAGGAGGAGGUUUAUCGAAUUUUCGGCGGAUGCGUCGAAA [G32A A33U C68G C71G], the “self-cleavage kobs at 40 uM GlcN6P” value with glucosamine-6-phosphate [1] was 0.000162 ± 3.9e-05 s⁻¹. Besides, the “self-cleavage kobs at 640 uM GlcN6P” value in the data set with glucosamine-6-phosphate [4] was determined as 0.000432 ± 0.0001 s⁻¹. Further, the “self-cleavage kobs at 2500 uM GlcN6P” value with glucosamine-6-phosphate [5] was determined as 9.26e-05 ± 3.4e-05 s⁻¹. For the same variant, the “self-cleavage kobs at 10000 uM GlcN6P” value with glucosamine-6-phosphate [3] came out at 0.000152 ± 3.2e-05 s⁻¹.
Regarding AUAAAAGCGCCAGAACUACAGAAAUGUAGUGGACGAGGAGGAGGUUUACCGAAAUUUCGGCGCAUGCGGCCAAA [U31G U49C U54A G63C C68G U69G], the “self-cleavage kobs at 40 uM GlcN6P” value with glucosamine-6-phosphate [1] is under 1e-05 s⁻¹.
Still for that read-out and setting: then AUAAAAGCGCCAGAACUACAGAAAUGUAGUUAACGAGGAGGAGGUUUAUCGUAUUUUCGGCGGAUGCCUCAAAA [G32A A52U C71A], with under 1e-05 s⁻¹; and AUAAAAGCGCCAGAACUACAGAAAUGUAGUUCACGUGGAAGAGGUUUAUCGAAUUUUCGGCGGAUGCCUCGAAA [G32C A36U G40A C71G], with under 1e-05 s⁻¹.
As to AUAAAAGCGCCAGAACUACAGAAAUGUAGUUAACGAGGAGGAGGUUUAUCGAAAUUUCGGCGGAUGCCUCCAAA [G32A U54A], the “self-cleavage kobs at 40 uM GlcN6P” value with glucosamine-6-phosphate [1] was determined as 6.3e-05 ± 1.3e-05 s⁻¹. Besides, the “self-cleavage kobs at 640 uM GlcN6P” value in the data set with glucosamine-6-phosphate [4] is 0.00067 ± 0.00011 s⁻¹. Moreover, the “self-cleavage kobs at 160 uM GlcN6P” value in the data set with glucosamine-6-phosphate [2] is 0.000125 ± 2.9e-05 s⁻¹. The “self-cleavage kobs at 2500 uM GlcN6P” value with glucosamine-6-phosphate [5] stood at 0.00157 ± 0.00026 s⁻¹. Besides, the “self-cleavage kobs at 10000 uM GlcN6P” value in the data set with glucosamine-6-phosphate [3] came out at 0.00286 ± 0.00045 s⁻¹.
Consider AUAAAAGCGCCAGAACUACAGAAAUGUAGUUCCCGAGGAGGAGGUUUAUCGAAUUUUCGGCGGAUGCCUCCAAA [G32C A33C], for which the “self-cleavage kobs at 40 uM GlcN6P” value with glucosamine-6-phosphate [1] is under 1e-05 s⁻¹. The “self-cleavage kobs at 640 uM GlcN6P” value in the data set with glucosamine-6-phosphate [4] was under 1e-05 s⁻¹. Further, the “self-cleavage kobs at 160 uM GlcN6P” value with glucosamine-6-phosphate [2] was under 1e-05 s⁻¹. For the same variant, the “self-cleavage kobs at 10000 uM GlcN6P” value with glucosamine-6-phosphate [3] was under 1e-05 s⁻¹.
Regarding AUAAAAGCGCCAGAACUACAGAAAUGUAGUGGACGAGGAGGAGUUUUAUCGAAUUUUCGGUGGAUGCCUCCAAA [U31G G44U C61U], in the data set with glucosamine-6-phosphate [1], the “self-cleavage kobs at 40 uM GlcN6P” value is under 1e-05 s⁻¹. Besides, in the data set with glucosamine-6-phosphate [3], the “self-cleavage kobs at 10000 uM GlcN6P” value was under 1e-05 s⁻¹.
As for AUAAAAGCGCCAGAACUACAGAAAUGUAGUUAACGAGGAGGAGGUUUAUCGAAUUUCCGGCGGAUGCCUCCAAA [G32A U57C], the “self-cleavage kobs at 40 uM GlcN6P” value in the data set with glucosamine-6-phosphate [1] was under 1e-05 s⁻¹. Moreover, the “self-cleavage kobs at 2500 uM GlcN6P” value in the data set with glucosamine-6-phosphate [5] was determined as 5.22e-05 ± 1.9e-05 s⁻¹.
